According to paper PMC4336329 (PLoS ONE, 2015):
About 14,000 (4.5%) of roughly 310,000 compounds showed an effect of 50% or more. The effect is printed as a negative number. The list shows a part of the results.

Biological target: human ether-à-go-go-related gene (hERG) potassium channel (human, UniProt Q12809)
Assay: primary screen, population patch clamp on CHO cells stably expressing hERG
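Also: peak tail current of the secondary pulse compared with the same well before compound.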

Sequence of human ether-à-go-go-related gene (hERG) potassium channel (Q12809 whole entry, looked up): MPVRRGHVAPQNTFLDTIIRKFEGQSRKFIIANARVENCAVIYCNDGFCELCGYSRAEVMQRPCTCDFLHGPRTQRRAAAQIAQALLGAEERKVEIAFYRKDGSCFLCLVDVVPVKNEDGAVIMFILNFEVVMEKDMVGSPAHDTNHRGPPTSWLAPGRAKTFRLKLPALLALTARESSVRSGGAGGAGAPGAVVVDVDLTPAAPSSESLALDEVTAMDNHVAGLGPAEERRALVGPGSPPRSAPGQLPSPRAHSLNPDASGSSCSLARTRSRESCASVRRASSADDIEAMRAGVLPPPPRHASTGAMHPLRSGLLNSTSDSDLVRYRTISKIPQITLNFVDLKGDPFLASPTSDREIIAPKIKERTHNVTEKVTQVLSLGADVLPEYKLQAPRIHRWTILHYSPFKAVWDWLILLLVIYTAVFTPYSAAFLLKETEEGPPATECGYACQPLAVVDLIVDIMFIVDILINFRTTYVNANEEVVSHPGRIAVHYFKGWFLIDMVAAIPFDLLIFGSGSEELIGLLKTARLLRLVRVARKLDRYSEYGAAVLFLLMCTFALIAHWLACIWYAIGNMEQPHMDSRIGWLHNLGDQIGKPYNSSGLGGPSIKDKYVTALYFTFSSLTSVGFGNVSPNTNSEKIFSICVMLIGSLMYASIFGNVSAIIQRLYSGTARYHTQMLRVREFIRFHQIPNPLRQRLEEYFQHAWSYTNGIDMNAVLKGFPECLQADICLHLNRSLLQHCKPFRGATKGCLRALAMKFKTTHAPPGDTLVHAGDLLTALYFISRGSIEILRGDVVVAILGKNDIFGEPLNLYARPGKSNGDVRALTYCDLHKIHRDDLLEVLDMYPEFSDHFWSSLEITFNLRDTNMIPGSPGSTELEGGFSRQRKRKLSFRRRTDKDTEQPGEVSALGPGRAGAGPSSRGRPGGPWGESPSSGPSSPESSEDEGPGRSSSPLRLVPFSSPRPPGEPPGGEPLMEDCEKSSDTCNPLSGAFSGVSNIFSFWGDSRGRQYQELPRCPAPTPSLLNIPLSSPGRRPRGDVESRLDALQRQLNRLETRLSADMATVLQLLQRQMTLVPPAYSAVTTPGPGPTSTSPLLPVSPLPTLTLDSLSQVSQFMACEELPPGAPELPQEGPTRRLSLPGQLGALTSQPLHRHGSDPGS

SMILES	hERG current change (%, negative = inhibition) at 10uM
N=c1c2c3c(sc2ncn1CCN1CCOCC1)CCCC3	-16.9%
CN1CCN(c2ccc(S(=O)(=O)N3CCCCC3)cc2NC(=O)COc2ccc([N+](=O)[O-])cc2)CC1	-34.3%
O=S(=O)(NC1CCCCC1NS(=O)(=O)c1ccc(F)cc1)c1ccc(F)cc1 (centres unmarked)	-5.29%
COc1ccc(C(=O)Nc2ccc(NC(=O)c3cccs3)c(OC)c2)cc1Cl	-20.1%
Cc1ccc(/C=C(\C#N)C(=O)Nc2ccccn2)o1	7.01%
CCN(c1ccc(OC)cc1)S(=O)(=O)c1cc(-c2cc(C)no2)ccc1OC	-15.5%
Cc1ccc2c(C)c(C(=O)N(Cc3ccc(F)cc3)C3CCS(=O)(=O)C3)oc2c1 (centres unmarked)	-2.08%
Cn1c(SCC(=O)N=Nc2c(O)[nH]c3ccccc23)nc2ccccc21	6.24%
COc1ccccc1CNC(=O)C1CCCN(S(C)(=O)=O)C1 (centres unmarked)	9.4%
O=C(O)c1ccc2c(=O)[nH]c(CN3CCOCC3)nc2c1	19.8%
O=C(Cc1cccs1)Nc1nnc(-c2ccccc2)s1	11.4%
O=C(O)CCn1ccnc1-c1ccccc1	6.21%
COc1ccc(/C=N/N(c2ccccc2)c2ccccc2)cc1O	7.16%
Cc1c(Cl)cccc1NC(=S)N=Nc1c(O)n(CN2CCOCC2)c2ccccc12	5.83%
COc1ccc(S(=O)(=O)NC(CC(C)C)C(=O)NC(C)c2cccs2)cc1 (centres unmarked)	-7.74%
C=C(c1ccccc1C)[n+]1ccccc1	26.3%
COc1ccccc1N(CC(=O)N/N=C(\C)c1cccc(Br)c1)S(C)(=O)=O	-1.22%
NNc1cc([N+](=O)[O-])cc2c1C(=O)N(Cc1ccccc1)S2=O (centres unmarked)	20.3%
Cn1nc(C(C)(C)C)c([N+](=O)[O-])c1C(=O)Nc1cccc2ccccc12	-3.22%
COc1ccc(OC)c(NC(=O)Nc2nnc(N3CCCCC3C)s2)c1 (centres unmarked)	7.74%
O=C(C1CCN(Cc2ccccc2)CC1)N1CCCC1	8.93%
CCOC(=O)C1=C(COC(=O)CCNS(=O)(=O)c2ccc(NC(C)=O)cc2)NC(=O)NC1C (centres unmarked)	16.7%

SMILES	hERG current change (%, negative = inhibition) at 10uM
O=C(N/N=C/C=C\c1ccccc1[N+](=O)[O-])c1ccco1	-10.4%
CC(Cc1ccccc1)NC(=O)CSc1nc2nc3c(cc2c(=O)n1-c1ccccc1)COC(C)(C)C3 (centres unmarked)	-14%
COc1ccc2c(C(=O)c3ccc(C)cc3)n(CCCC(N)=O)[n+]([O-])c2c1	-44.2%
CNc1oc(-c2ccccc2Cl)nc1P(=O)(c1ccccc1)c1ccccc1	-3.35%
CC(C)(C)Cc1nnc(NS(=O)(=O)c2ccccc2)s1	33.4%
COCC(=O)N1CCC(Oc2ccc(C(=O)N[C@H](C(=O)OC)C(C)C)cc2)CC1	24.7%
O=C(Nc1ccc(F)c([N+](=O)[O-])c1)c1ccc2c(c1)OCCO2	25.6%
O=C1CCC(C(=O)OCC(=O)c2c[nH]c3ccccc23)=NN1	1.19%
COc1ccc(C(=O)COC(=O)CCCN=C2NS(=O)(=O)c3ccccc32)c(OC)c1	-10.5%
CC(=O)NNS(=O)(=O)c1scc(S(=O)(=O)c2ccc(Cl)cc2)c1C	12.3%
CCOc1ccc(NC(=O)N2CCC(n3nnc4ccccc43)CC2)cc1	-15.4%
CCOC(=O)C1=C(O)/C(=C/c2ccc(OCC(=O)O)c(OCC)c2)SC1=Nc1ccc(OC)cc1	15.7%
Cc1ccccc1Nc1nc(N2CCOCC2)nc(N2CCOCC2)n1.Cl	14%
COc1ccc(-c2nc(NC(=O)C3CC(=O)N(Cc4ccco4)C3)sc2C)cc1 (centres unmarked)	-34.3%
COc1ccc(S(=O)(=O)N(CC(=O)N/N=C/c2cccs2)c2ccc(C)cc2)cc1OC	-23.6%
O=C(CN1CCN(S(=O)(=O)c2ccc(Cl)s2)CC1)N1CCCCC1	-21.5%
O=C(N/N=C/C(Br)=C/c1ccccc1)c1cccs1	6.77%
C[C@@H]1CCC(=O)N(C[C@@H](C)CSc2ccc(Br)cc2)CC1	-8.13%
CCOc1ncccc1C(=O)N1CCN(c2ccc(C(F)(F)F)cn2)CC1	-7.14%
O=C(c1ccc2c(c1)OCCO2)N1CCCC(CNS(=O)(=O)c2cccs2)C1 (centres unmarked)	8.14%
COc1nc(C)nc2c1ccc1ccccc12	6.71%
Cc1cc(Nc2ccc(C(C)C)cc2)n2ncnc2n1	-40.8%

SMILES	hERG current change (%, negative = inhibition) at 10uM
COc1ccc(C2(CNC(=O)c3ccc(C)cc3)CCOCC2)cc1	-8.18%
Cc1ccc(C2=[N+]([O-])C3(CCCCC/C3=N\NC(N)=S)N(O)C2(C)C)o1 (centres unmarked)	5.99%
CCOC(=O)/C(C#N)=C/c1cn(CCC(=O)O)nc1-c1ccc(OC)cc1	15.4%
Cc1ccc(C(C)NC(=O)c2ccc3c(c2)OCCO3)cc1C (centres unmarked)	-8.36%
CCOC(=O)C1(CCc2ccccc2)CCN(Cc2ccco2)CC1	-76.5%
CCCc1nc2oc3ccccc3c(=O)c2c(=O)n1CCCOC	0.168%
CCc1ccc2ncc(C(=O)c3ccccc3)c(N3CCOCC3)c2c1	-45.7%
C=CCOC(=O)C1=C[C@H](C(C)(C)C)[C@@H](CCCO)[C@H](OCC)O1	0.0838%
CCOC(=O)C1CCN(C(=O)c2ccc3c(c2)NC(=O)/C(=C\c2ccc(C)cc2)S3)CC1	9.36%
CCN(CCn1cccn1)C(=O)c1cc(COc2cc(C)ccc2C)on1	-13.7%
CC1CCCN(C(=O)COc2ccc(NC(=O)c3cccs3)cc2)C1 (centres unmarked)	2.95%
COC(=O)c1ccccc1NC(=O)c1cc(OC)cc(OC)c1	-2.7%
CC(=O)c1nnn(-c2cccc([N+](=O)[O-])c2)c1C	14.6%
O=C(c1ccccc1)N(Cc1cccs1)C1CCS(=O)(=O)C1 (centres unmarked)	12%
Cc1ccc(OCc2ccc(C(=O)Nc3nccs3)o2)cc1	3.74%
O=C1NC(=O)C2(Cc3ccccc3N3CCCC32)C(=O)N1c1ccccc1 (centres unmarked)	14%
O=C(COC(=O)COc1ccccc1F)Nc1ccc(Cl)cn1	7.81%
COCCn1c(SCC(=O)N2CCOCC2)nnc1-c1ccco1	28.1%
C=CCN(CC=C)CCOc1ccc(OC(C)C)cc1.O=C(O)C(=O)O	-47.5%
O=C(N/N=C(\c1ccccc1)c1cccnc1)c1cc(O)ccc1O	16.4%
Cc1cccc(C(=O)OCC(=O)NCc2ccco2)c1	14.9%
Cc1nc(Nc2cc(F)ccc2C)c2nnn(Cc3ccccc3)c2n1	-16.9%

SMILES	hERG current change (%, negative = inhibition) at 10uM
CCN(CC)S(=O)(=O)c1ccc(Cl)c(C(=O)Nc2cc(C)nn2-c2ccccc2C(F)(F)F)c1	-23.1%
C=CCNC(=O)/C=C/c1c(F)cccc1Cl	-0.397%
Cc1nn(CC(=O)Nc2ccccc2)c(=O)c2ccccc12	1.81%
Cc1ccc(-n2nnnc2Sc2nc([N+](=O)[O-])nn2C)cc1C	-6.19%
O=C(CN(Cc1ccccc1)S(=O)(=O)c1ccc(S(=O)(=O)N2CCOCC2)cc1)Nc1ccccc1	-8.64%
CC(NC(=O)c1ccc2ccccc2n1)c1ccc(Br)cc1 (centres unmarked)	13.2%
COc1ccc(CCNC(=O)C(=O)NCC2OCCN2S(=O)(=O)c2ccc3c(c2)OCCO3)cc1OC (centres unmarked)	1.79%
CC(=O)N1CCOc2ccc(S(=O)(=O)Nc3cccc(C)n3)cc21	11.2%
COc1ccc(OC)c(S(=O)(=O)N2CCN(CC(O)CN3CCOCC3)CC2)c1 (centres unmarked)	-5.05%
O=C(NC1CSC/C1=N\O)c1ccccc1 (centres unmarked)	12.4%
CCCn1c2ccccc2c2cnn(CC(=O)NCCCN3CCN(c4ccccc4)CC3)c(=O)c21	-74.2%
Cc1ccccc1Cn1nc(C)c(NC(=O)c2noc3c2CCCC3)c1C	6.24%
COc1ccc(OC)c(-n2c(SCC(=O)N3CCc4ccccc43)nc3c(c2=O)SCC3)c1	0.299%
Cc1nn(Cc2ccccc2)c2c1C(c1ccccc1)C(C#N)=C(N)O2 (centres unmarked)	9.87%
O=C(COc1cccnc1[N+](=O)[O-])NCCc1ccccc1	1.46%
COc1ccc(C(=O)NCCNc2nc3ccc(C)cc3cc2C#N)cc1	4.99%
C=CCn1c(CCC(=O)Nc2ccc(C)c(Cl)c2)nnc1SCC(=O)Nc1ccccc1C	-5.38%
CCOc1ccc(Cl)cc1S(=O)(=O)n1nnc2ccccc21	-1.05%
CCOc1ccc(C2(C)NC(=O)N(CCN(C)C)C2=O)cc1 (centres unmarked)	8.75%
COC(=O)c1ccccc1Sc1c(/C=N/OC(=O)c2ccccc2)c(C(F)(F)F)nn1C	15.4%
